# Results: patent publication US20250051434A1 (Merck Sharp & Dohme, published 2025)
# B1: IL-12-Fc-39 (Fc fusion)
# chain 1: TPDPGMFPCLHHSQNLLRAVSNMLQKARQTLEFYPCTSEEIDHEDITKDKTSTVEACLPLELTKNESCLNSRETSFITNGSCLASRKTSFMMALCLSSIYEDLKMYQVEFKTMNAKLLMDPKRQIFLDQNMLAVIDELMQALNFNSETVPQKSSLEEPRFYKTKIKLCILLHAFRIRAVTIDRVMSYLNASGGGGSGGGGSGGGGS[skipping human IgG1 Fc with L234A L235A D265S S354C T366W (EU numbers)]
# chain 2: IWELKKDVYVVELDWYPDAPGEMVVLTCDTPEEDGITWTLDQSSEVLGSGKTLTIQVKEFGDAGQYTCHKGGEVLSHSLLLLHKKELGIWSTDILKDQKEPKNKTFLRCEAKNYSGRFTCWWLTTISTDLTFSVKSSRGSSDPQGVTCGAATLSAERVRGDNKEYEYSVECQEDSACPAAEESLPIEVMVDAVHKLKYENYTSSFFIRDIIKPDPPKNLQLKPLKNSRQVEVSWEYPDTWSTPHSYFSLTFCVQVQGKSKREKKDRVFTDKTSATVICRKNASISVRAQDRYYSSSWSEWASVPCSGGGGDKTHTCPPCPAPEAAGGPSVFLFPPKPKDTLMISRTPEVTCVVVSVSHEDPEVKFNWYVDGVEVHNAKTKPREEQYNSTYRVVSVLTVLHQDWLNGKEYKCKVSNKALPAPIEKTISKAKGQPREPQVCTLPPSRDELTKNQVSLSCAVKGFYPSDIAVEWESNGQPENNYKTTPPVLDSDGSFFLVSKLTVDKSRWQQGNVFSCSVMHEALHNHYTQKSLSLSPGK
# B2: IL-12-Fc-40 (Fc fusion)
# chain 1: B1 chain 1 with R159D, Y161S
# chain 2: B1 chain 2
# B3: IL-12-Fc-50 (Fc fusion)
# chain 1: B1 chain 1 with I41S, R159D
# chain 2: B1 chain 2 with L87D, K104D
# B4: IL-12-Fc-44 (Fc fusion)
# chain 1: B1 chain 1 with E44R, R159D
# chain 2: B1 chain 2 with L87D, K104E
# B5: IL-12-Fc-48 (Fc fusion)
# chain 1: B1 chain 1 with R159D, Y161T
# chain 2: B1 chain 2 with L87D, K104E
# B6: IL-12-Fc-42 (Fc fusion)
# chain 1: B1 chain 1 with R159D, Y161A
# chain 2: B1 chain 2
# B7: IL-12-Fc-43 (Fc fusion)
# chain 1: B1 chain 1 with I41S, R159D
# chain 2: B1 chain 2 with L87D, K104E
# B8: IL-12-Fc-49 (Fc fusion)
# chain 1: B1 chain 1 with R159D, Y161A
# chain 2: B1 chain 2 with L87D, K104E
# B9: IL-12-Fc-46 (Fc fusion)
# chain 1: B1 chain 1
# chain 2: B1 chain 2 with L87D, K104E
# B10: IL-12-Fc-51 (Fc fusion)
# chain 1: B1 chain 1 with E44R, R159D
# chain 2: B1 chain 2 with L87D, K104D
# B11: IL-12-Fc-45 (Fc fusion)
# chain 1: B1 chain 1 with R159K
# chain 2: B1 chain 2 with L87D, K104E
# B12: IL-12-Fc-47 (Fc fusion)
# chain 1: B1 chain 1 with R159D, Y161S
# chain 2: B1 chain 2 with L87D, K104E
# Molecular target: human IL-12 receptor (IL-12R) (human, UniProt P42701 24-662; Q99665 24-862)
# Assay: cell-based or functional assay
row,Mean Fold Reduction (potency vs IL-12 WT by EC50; HEK-Blue IL-12 STAT4/SEAP reporter),Binder
1,2 fold,B1
2,12 fold,B2
3,2 fold,B3
4,3 fold,B4
5,209 fold,B5
6,5 fold,B6
7,3 fold,B7
8,6 fold,B8
9,1 fold,B9
10,2 fold,B10
11,1 fold,B11
12,45 fold,B12

# Changes are numbered by the printed parent chain.
